Laboratory results taken from PubChem BioAssay AID1745853 (National Center for Advancing Translational Sciences (NCATS), 2022).
The list shows a part of the results. These are further read-outs of the screen, such as a control signal, another cell line or another target. No call is given for them.

Columns and labels:
Experiment in all cases: Primary Screen for Target Class Profiling of Small Molecule Inhibitors of Methyltransferases
[1] = target: Glycine N-methyltransferase (Homo sapiens) (UniProt Q14749); settings: purified enzyme, MTase-Glo SAH luminescence; measured here: GNMT inhibition; at 40 µM; stronger effect = lower value
Procedure, shortened: (§1)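 Each enzyme was assayed with SAM and its substrate. SAH formation detected by MTase-Glo luminescence; single-point 40 uM screen[…].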

[2] = target: Guanidinoacetate N-methyltransferase (Homo sapiens) (UniProt Q14353); settings: purified enzyme, MTase-Glo SAH luminescence; measured here: GAMT inhibition; at 40 µM; stronger effect = lower value
Procedure, shortened: as §1

[3] = target: Histamine N-methyltransferase (Homo sapiens) (UniProt P50135); settings: purified enzyme, MTase-Glo SAH luminescence; measured here: HNMT inhibition; at 40 µM; stronger effect = lower value
Procedure, shortened: as §1

[4] = target: Nicotinamide N-methyltransferase (Homo sapiens) (UniProt P40261); settings: purified enzyme, MTase-Glo SAH luminescence; measured here: NNMT inhibition; at 40 µM; stronger effect = lower value
Procedure, shortened: as §1

[5] = target: Phenylethanolamine N-methyltransferase (Homo sapiens) (UniProt P11086); settings: purified enzyme, MTase-Glo SAH luminescence; measured here: PNMT inhibition; at 40 µM; stronger effect = lower value
Procedure, shortened: as §1
% is scaled to controls: 0 for no effect and ±100 for the full control effect.

SMILES	activity change, negative = inhibition [1] [%]	activity change, negative = inhibition [2] [%]	activity change, negative = inhibition [3] [%]	activity change, negative = inhibition [4] [%]	activity change, negative = inhibition [5] [%]
CCOC(=O)c1cc2n(n1)CC(C)(C(=O)NC1CCCC1)N(c1cccc(Cl)c1)C2=O (stereo not drawn)	5.01	4.45	3.79	4	4.07
O=C(CCc1nnc2n(Cc3ccc(F)cc3)c(=O)c3ccccc3n12)NCCN1CCOCC1	-6.5	0	3.54	7	-0.994
COCCCNc1nc2c(-c3cccc(C)c3)nnn2c2ccc(Cl)cc12	-3.85	3.56	2.7	-7.36	-2.94
Cc1ccc(/C(=C\CN2CCCC2)c2ccccn2)cc1	4.41	12.5	13.3	-7	-0.795
Cc1ccc(Cn2c(=O)c3ccccc3n3c(-c4ccccc4C)nnc23)cc1	-5.2	1.71	7.09	-3.78	1.02
COc1ccc(NC(=O)CSc2nnc3n(Cc4ccc(F)cc4)c(=O)c4ccccc4n23)cc1	1.11	0	10.4	2.65	3.6
C=C[C@H]1[C@H](O[C@@H]2O[C@H](CO)[C@@H](O)[C@H](O)[C@H]2O)OC=C(C(=O)OC)[C@H]1CCO	2.48	7.01	3.43	-5.53	6.49
CCc1cc2c(cc3n2CC(C)(C(=O)NC2CCCCC2)N(CCCN2CCCCC2)C3=O)s1 (stereo not drawn)	4	0	10	10.5	3.73
O=C(c1ccnc(CC2CC(=O)N(c3ccccc3)C2)c1)N1CCCCC1 (stereo not drawn)	-2.06	-3.94	-16.8	-10.2	7.68
CCC(=O)N1Cc2ccccc2CC2(CCCN2CC2CCOCC2)C1 (stereo not drawn)	-4.91	-7.84	-5.3	-18.3	-6.71
CCOc1ccc(S(=O)(=O)N2CCCCCC2)c2ccccc12	-2.87	-9.87	11.6	-19.5	-4.15
CC(C)C(=O)O[C@@H]1[C@@H](O)[C@@H](O[C@H]2O[C@H](CO)[C@@H](O)[C@H](O)[C@H]2O)O[C@H](CO)[C@H]1O	0	20.4	13.6	7.15	3.19
COc1ccc(OC)c2c1cc1n2CC(C)(C(=O)NC2CCCCC2)N(Cc2cccc(F)c2)C1=O (stereo not drawn)	-12.3	-2.76	-4.95	-5.27	-7
Cc1cnc(C(=O)N2CCCC2c2nc(CCOCC3CCCC3)no2)cn1 (stereo not drawn)	-3.94	-5.47	-0.966	-9.76	-5.2
C#CCN(Cc1cc2c(=O)n(C)c(CN3CCN(C)CC3)nc2cc1Cl)c1ccc(C(=O)NCc2cccnc2)cc1	-9.41	16.3	-36.1	-11.4	-0.901
Cc1ccc2c(c1)c(-n1cccc1)c1n2CC(C)(C(=O)NC2CCCCC2)N(Cc2ccco2)C1=O (stereo not drawn)	-14.7	-2.18	-8.97	-8.75	-8.71
Oc1ccc([C@@H]2Oc3ccc(O)cc3[C@@H]3CCC[C@@H]32)cc1	-10.6	1.27	-29.2	-12.3	-1.01
Cc1c(Cl)cccc1N1C(=O)c2cc(-c3ccco3)nn2CC1(C)C(=O)NC1CCCCC1 (stereo not drawn)	-6.97	3.23	-4.97	1.48	-5.96

SMILES	activity change, negative = inhibition [1] [%]	activity change, negative = inhibition [2] [%]	activity change, negative = inhibition [3] [%]	activity change, negative = inhibition [4] [%]	activity change, negative = inhibition [5] [%]
Cc1cc(-c2nc(C(=O)Nc3cn(C4CCOCC4)nc3C(N)=O)co2)ccn1	–	-10.2	–	-18.4	-1.66
Cc1ccccc1NC(=O)CN(C)S(=O)(=O)c1ccc2[nH]c3c(c2c1)CCCC3	-0.974	0	4.24	0.137	3.2
CCCC1c2cccn2CCN1C(=O)Nc1ccc(Br)cc1F (stereo not drawn)	-1.06	1.38	-39.2	0.537	4.75
CC(C)CNC(=O)c1ccc2c(=O)n(CC(C)C)c3nn(CC(=O)N(C)c4ccccc4)c(=O)n3c2c1	2.83	3.4	5.25	-4.32	-1.08
CN(CCCN1C(=O)c2cc3occc3n2CC1(C)C(=O)NC1CCCCCC1)Cc1ccccc1 (stereo not drawn)	-5.72	-4.08	-8.35	-4.34	-5.48
Cc1ccccc1CN1C(=O)c2cc3occc3n2CC1(C)C(=O)NC1CCCCCC1 (stereo not drawn)	-0.653	3.21	2.73	-7.9	-8.2
CC(C)(C)NC(=O)Cn1nc2n(Cc3ccccc3)c(=O)c3ccc(C(=O)NC4CCCC4)cc3n2c1=O	1.03	2.43	4.49	-2.53	1.29
C=C1CO[C@@]2(O[C@H]3CC4C5CC=C6C[C@@H](O)C[C@@H](O[C@@H]7OC[C@H](O)[C@H](O[C@@H]8OC[C@@H](O)[C@H](O)[C@H]8O)[C@H]7O[C@@H]7O[C@@H](C)[C@H](OC(C)=O)[C@@H](OC(C)=O)[C@H]7OC(C)=O)[C@]6(C)C5CC[C@]4(C)[C@@H]3[C@@H]2C)[C@@H](O)[C@H]1OC1OC(C)C(O)C(O)C1O (stereo partly drawn)	4.62	1.71	5.47	-8.07	6.29
COc1ccc2cc3n(c2c1)CC(C)(C(=O)NC1CCCC1)N(Cc1ccccc1F)C3=O (stereo not drawn)	4.39	2.91	9.41	4.54	2.57
CC1(C(=O)NC2CCCCC2)Cn2c(ccc2-c2ccco2)C(=O)N1Cc1cccs1 (stereo not drawn)	-13.2	1.01	-5.42	-18.6	-5.14
COc1ccc(Cl)cc1NC(=O)Cn1nc2n(Cc3ccccc3)c(=O)c3ccccc3n2c1=O	6.42	0.803	4.9	3.67	4.43
CC(O)C(C)n1ncn(-c2ccc(N3CCN(c4ccc(OCC5COC(Cn6cncn6)(c6ccc(Cl)cc6Cl)O5)cc4)CC3)cc2)c1=O (stereo not drawn)	-1.97	7.2	6.86	-0.785	10.7
CCCn1c(=O)c2ccc(Cl)cc2n2c(=O)n(CC(=O)Nc3cc(C)cc(C)c3)nc12	3.2	0	6.25	3.2	1.02
CC(C)OCCCn1c(=O)c2ccccc2n2c(SCC(=O)Nc3ccccc3F)nnc12	-5.57	3.44	-0.715	-3.63	-0.406
O=S(=O)(Cc1ccccc1)Nc1ccc(-c2ccc3c(cnn3-c3ccc(F)cc3)c2)c(C(F)(F)F)c1	-1.6	-22.4	6.12	-36.5	-10.3
CNC(=O)c1nn(C)c2c1C(C)(C)Cc1cnc(Nc3ccc(N4CCN(C)CC4)cc3)nc1-2	-6.97	7.07	-36.3	-11	6.28
CCOC(=O)C1CCC(CNC(=O)N2CCn3c(C)ccc3C2CC)CC1 (stereo not drawn)	1.82	0	2.05	4.62	-2.33
